# Assay results reported in publication PMC10668032.
# This is one part of the list. At the low end of the ranking the order means little.
# Target: SIX1-Q177R homeodomain (UniProt Q15475)
# Test: universal protein binding microarray
# Settings: Universal all-10-mer PBM (8x60K, AMADID 030236), 300 nM GST-tagged protein, Alexa Fluor 488 anti-GST; buffer, salt, pH and temperature not stated; high values mean tight binding; most listed sequences are background and not binding sites; double strand, one strand shown
row,Sequence,binding signal
1,AGAATGAG,-0.145 E-score
2,ACAGTGTG,0.139 E-score
3,CCCTGGCA,0.0435 E-score
4,CGATGGGA,-0.171 E-score
5,AGGACTAG,-0.103 E-score
6,ACAAGTAT,-0.000825 E-score
7,CAATATCG,-0.198 E-score
8,ACCACCCG,0.14 E-score
9,CCATGCCC,-0.0487 E-score
10,CCAAAAGA,-0.0849 E-score
11,CGAGAGAA,-0.215 E-score
12,AAACTGAT,-0.0158 E-score
13,AGGCCACC,-0.154 E-score
14,ACACTTGA,0.376 E-score
15,AAAATTAA,-0.215 E-score
16,CAGTGAGG,-0.0361 E-score
17,CCTGTGGA,-0.127 E-score
18,AGCTGGTG,0.229 E-score
19,AACCGATA,0.0716 E-score
20,AAGATACC,0.225 E-score
21,AGCTTAGG,-0.0717 E-score
22,CGTTTTTA,-0.0972 E-score

row,Sequence,binding signal
1,GGGGGCAA,-0.182 E-score
2,CGATAAGA,-0.216 E-score
3,GATTAGTA,0.0964 E-score
4,AGAGTCCG,-0.154 E-score
5,GGAGGAAA,-0.204 E-score
6,TGACGCAA,-0.0998 E-score
7,CCCCTCTC,0.107 E-score
8,CGGAAGTC,-0.197 E-score
9,AACTCAAC,-0.0053 E-score
10,ACGTACGA,-0.188 E-score
11,CTGTGTGC,0.0209 E-score
12,CCCTGGCC,-0.00771 E-score
13,GATAAGCA,0.0954 E-score
14,ATGTAAGA,-0.0291 E-score
15,GAAACCCA,0.126 E-score
16,CCGGCTAC,0.0969 E-score
17,ACGTAATA,-0.0915 E-score
18,AATCTATA,-0.152 E-score
19,CATGTGCG,-0.103 E-score
20,GCTGGTTA,-0.0378 E-score
21,AAACAACG,-0.0251 E-score
22,GACCTAAC,-0.0784 E-score

row,Sequence,binding signal
1,GCACAAAA,-0.143 E-score
2,AGGCTAGG,-0.0794 E-score
3,TCGCATAA,-0.1 E-score
4,ATCCGCGC,0.0799 E-score
5,ACTTAAAG,-0.0104 E-score
6,CGGTAGAG,0.126 E-score
7,AGCCGCCC,-0.00833 E-score
8,CAGTCTAA,-0.023 E-score
9,AAAGAACA,0.14 E-score
10,AGCCACAA,-0.196 E-score
11,CTTCTAGC,-0.145 E-score
12,ACTAGAAA,-0.154 E-score
13,GTCGAGAC,0.0988 E-score
14,GAAGTTAC,-0.133 E-score
15,AGAGACGG,-0.0269 E-score
16,ACTGAGAC,-0.137 E-score
17,CAGTGAGC,-0.211 E-score
18,GATTTCCC,-0.0946 E-score
19,CTACCCCC,0.268 E-score
20,ATGACTGA,-0.173 E-score
21,CGGCTAAG,-0.134 E-score
22,ACAGCGCT,-0.172 E-score

row,Sequence,binding signal
1,AATGCAAA,-0.226 E-score
2,ATCGCTCC,-0.171 E-score
3,ACTGCAAC,0.056 E-score
4,AGATTAGA,-0.136 E-score
5,AGCCCATG,-0.178 E-score
6,GCTCGAGC,-0.0158 E-score
7,CTCATACA,0.101 E-score
8,GAATTGTA,-0.122 E-score
9,GCACTAAA,-0.00693 E-score
10,ACTTCCAA,-0.134 E-score
11,GTGGCTGA,-0.0464 E-score
12,ACTCGGAT,0.124 E-score
13,AATGATCC,0.17 E-score
14,CTCATAGC,-0.297 E-score
15,ATCAAGAG,-0.101 E-score
16,CGTCTAAG,0.0324 E-score
17,CACCATGC,0.297 E-score
18,ATCAGAAC,0.0286 E-score
19,AGGTATAT,-0.034 E-score
20,CTCGGGCC,-0.0314 E-score
